Reference: the supplement of paper PMC12217912
This is one part of the list. Sequences were assembled here from the parent chain. Values near 0.05 are background.

B1: TEV protease; numbered along this chain (parent)
chain: MGESLFKGPRDYNPISSSICHLTNESDGHTTSLYGIGFGPFIITNKHLFRRNNGTLVVQSLHGVFKVKDTTTLQQHLVDGRDMIIIRMPKDFPPFPQKLKFREPQREERICLVTTNFQTKSMSSMVSDTSCTFPSGDGIFWKHWIQTKDGQCGSPLVSTRDGFIVGIHSASNFTNTNNYFTSVPKNFMELLTNQEAQQWVSGWRLNADSVLWGGHKVFMVKPEEPFQPVKEATQL

Variants of: B1
Experiment: raw area under fraction-flipped curve 0-4 h after induction (AUC4h, not background-subtracted), DNA-recorder readout of cleavage of the substrate (dimensionless); higher = more cleavage of the substrate by the protease variant
Conditions: temperature: 34 °C; time window: 0-4 h after rhamnose induction
Experimental: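 In vivo DNA recorder in E. coli TOP10(DE3) ΔrhaA at 34 °C. Each TEVp single-site mutant (parent TEVp 0) is paired with a single-site variant of the 7-mer TEVs (canonical ENLYFQ|S). The substrate sits between flexible linkers in a Bxb1-sfGFP-TEVs-SsrA fusion, so cleavage stabilises Bxb1 and speeds flipping of a recombination array, read by NGS. The value is the raw area under the fraction-flipped curve over 0-4 h after rhamnose induction (AUC4h), with ≥20 reads per time point. It is not background-subtracted; inactive controls average about 0.047.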
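Note: Bxb1 expression induced with 0.2% (w/v) L-rhamnose at OD600 near 0.5, cultures sampled hourly, flipped fraction per protease–substrate barcode pair counted by paired-end Illumina sequencing.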

Variant	area with substrate ENLYFAS	area with substrate ENLYFCS	area with substrate ENLYFDS	area with substrate ENLYFES	area with substrate ENLYFFS	area with substrate ENLYFGS	area with substrate ENLYFHS	area with substrate ENLYFIS	area with substrate ENLYFKS	area with substrate ENLYFLS	area with substrate ENLYFMS	area with substrate ENLYFNS	area with substrate ENLYFPS	area with substrate ENLYFSS	area with substrate ENLYFTS	area with substrate ENLYFVS	area with substrate ENLYFYS	area with substrate ENLYFWS	area with substrate ENLYFRS
I36L	0.0602	0.0619	0.0564	0.0674	0.0565	0.0605	0.0642	0.061	0.0643	0.0597	0.0627	0.0637	0.0585	0.0658	0.0436	0.0564	0.0613		
T30K	0.0648			0.0863	0.0688		0.0573	0.0612	0.0376		0.0666	0.0685	0.051	0.0631	0.0504			0.0731	
F49C	0.0524	0.0483	0.0526	0.0626	0.0602	0.0662	0.0656	0.0546	0.0628	0.0522	0.0636	0.0513	0.0639	0.0507	0.0587		0.0627	0.075	0.0654
S26A	0.0696	0.0653	0.0549	0.0593	0.0641		0.0585	0.0655	0.0671	0.0466	0.0732	0.0656			0.0694	0.0608	0.0534	0.0526	0.0598
S26T	0.0596	0.0554		0.0621	0.0553			0.0516	0.0743	0.0573		0.0781	0.0559	0.0482	0.0562	0.0452	0.0462	0.0591	
G37K	0.0432	0.0575	0.049	0.0536		0.0522	0.0518	0.0415	0.0549	0.0444	0.0665	0.0427	0.0514		0.0503			0.0688	0.0495
G37N	0.0524						0.0464	0.0526	0.0497		0.041	0.0548	0.0494	0.0466	0.0567		0.0389	0.0256	
G37E	0.0482	0.0465		0.0356	0.0613		0.0399	0.041	0.0476	0.0522	0.0511		0.0733	0.0429	0.0486	0.0403		0.0473	0.0526
P40E	0.0558		0.0646	0.0714	0.0613			0.0566	0.0441	0.051	0.0323	0.0861	0.0816		0.07	0.0533	0.0527		0.0485
S17N	0.0639			0.0561	0.0733		0.0405	0.0567	0.0594		0.0618	0.0594	0.0532	0.0519	0.036			0.044	0.0598
S17V	0.055		0.0523	0.0585	0.0704	0.0537	0.0466	0.0553	0.071	0.0487	0.0625	0.0632	0.0601	0.0554	0.0646		0.0601	0.0851	0.0606
